Experimental data as given in PMC10668032.
The other results are listed elsewhere or left out. At the low end of the ranking, values are background and their order means little.

Molecular target: SIX1-Q177R homeodomain (UniProt Q15475)
Experiment: universal protein binding microarray
Details: Universal all-10-mer PBM (8x60K, AMADID 030236), 300 nM GST-tagged protein, Alexa Fluor 488 anti-GST; buffer, salt, pH and temperature not stated; high values mean tight binding; most listed sequences are background and not binding sites; double strand, one strand shown

| Sequence | binding signal [E-score] |
| --- | --- |
| TGCTGACA | 0.122 |
| AAGCGTAA | -0.0252 |
| GACCATGC | -0.0977 |
| AATCAAAC | -0.0519 |
| AAGTTCCA | -0.256 |
| AGTACCGA | 0.00653 |
| ACATGCCG | -0.0193 |
| AACAGAAA | -0.211 |
| GCTTGCAC | 0.00092 |
| CCTTTAGC | -0.152 |
| GAATCCTC | -0.118 |
| CTAAGATC | -0.159 |
| CCCGCCGC | 0.184 |
| CCGTGCCG | 0.0677 |
| CCCCTGTA | 0.102 |
| AATCTGCT | -0.334 |
| ACTTGGCA | -0.0568 |
| AGCCGTAA | -0.209 |
| ACGTACAT | 0.00483 |
| ATAAATGG | -0.00499 |
| CGAGAGTC | 0.00991 |
| ATTCTCGC | -0.152 |
| AAGGAATC | 0.0436 |
| AGGTGAGC | -0.119 |
| CCTTGAGC | 0.00841 |

| Sequence | binding signal [E-score] |
| --- | --- |
| CGCAGACC | -0.176 |
| AAGGCGGT | 0.0185 |
| AGTCGTTC | -0.0763 |
| GCACTGAC | -0.0184 |
| GTTACTTA | 0.064 |
| TTCACAAA | 0.0659 |
| GCTCTACA | 0.0598 |
| CTCTGTAC | -0.0644 |
| CCTCAACA | 0.204 |
| CTTATCGA | -0.0522 |
| AAAGATCC | -0.174 |
| CGTTGGGC | -0.0337 |
| ACAACGAA | -0.0242 |
| AAGTCACG | -0.0149 |
| ACGATTGC | -0.0427 |
| CGGAAGTA | -0.0591 |
| CAGATCCG | 0.0479 |
| TCATAGGA | -0.138 |
| ATTTCATA | 0.00298 |
| ACGGCCAG | -0.0922 |
| CCAGGGGG | 0.0958 |
| AAAGCCAT | -0.27 |
| GATCTGCA | 0.00799 |
| CACAGCTC | -0.0371 |
| CGATACCG | 0.233 |

| Sequence | binding signal [E-score] |
| --- | --- |
| GGTAAGGA | -0.0813 |
| AGCTGATA | -0.0947 |
| CGACATGA | 0.0835 |
| GATCTTCA | -0.0843 |
| CTGCAGGC | -0.249 |
| CTCCGGAA | -0.12 |
| TGACTCCA | 0.249 |
| AATGCGCC | 0.0246 |
| GCGGACTA | -0.177 |
| ACGTGTTA | 0.352 |
| GAAGGGGA | -0.0302 |
| CCCGGGTA | 0.252 |
| ACTTTAAT | -0.0641 |
| CCGAAGGA | 0.0587 |
| CTCACAGC | -0.128 |
| TAGTATGA | -0.0172 |
| CAAGGAGC | -0.115 |
| ATATGAAT | -0.141 |
| TACAACTA | -0.075 |
| AAGGTTTG | -0.0842 |
| CATTCAAA | -0.185 |
| CACAGAAC | 0.0828 |
| CCTATAAC | 0.194 |
| GCGCACAC | 0.289 |
| ATAGCAAT | -0.118 |

| Sequence | binding signal [E-score] |
| --- | --- |
| GAGGAAGA | -0.202 |
| CAGTCCAA | -0.111 |
| ATCCACGC | -0.105 |
| GGCGCCGA | -0.0887 |
| ATGATCGG | -0.0775 |
| GGTATCTA | 0.216 |
| TAAGCTGA | -0.0983 |
| AAGTGGAA | 0.0977 |
| ACCAGCTG | 0.0235 |
| CCACACCG | 0.363 |
| AATTCATG | -0.0272 |
| AGACTCCT | 0.0374 |
| CGGCTCTA | -0.0884 |
| ACTGACAT | -0.038 |
| CAGTGTGC | 0.12 |
| GGGACCGA | -0.157 |
| AATTTGGG | -0.144 |
| GCCGGCAC | -0.104 |
| ACTCGGCA | 0.161 |
| GCGCTTGA | -0.203 |
| GCGGCCTA | -0.163 |
| CAACCCTA | 0.0885 |
| ACTACACT | 0.431 |
| GGGAAAAC | -0.147 |
| CCCGGACC | 0.0319 |

| Sequence | binding signal [E-score] |
| --- | --- |
| CCAACCAC | 0.134 |
| CCACTGTA | 0.0301 |
| CATATGAC | -0.0276 |
| ACCCCATG | 0.226 |
| ATAGCGTA | -0.0919 |
| GACCCAGC | 0.0632 |
| TGATCCAA | 0.0781 |
| CACAAGAC | -0.108 |
| CGTACGAA | -0.192 |
| AAGTCTCC | -0.301 |
| ATATTAAT | -0.0555 |
| GAAGCATC | -0.138 |
| AGGGATAA | 0.109 |
| AAGCTTGT | -0.117 |
| CATGCTAA | -0.224 |
| CTCTTCAA | -0.108 |
| ACACAAAC | 0.123 |
| GTTACAGA | -0.0521 |
| AACATCGA | -0.0983 |
| AATCGCTA | 0.0501 |
| AAAATGTA | -0.234 |
| ACGAATCG | -0.00509 |
| AAGTGCTA | -0.0655 |
| CAAGAAAG | -0.237 |
| CGTTTGTA | -0.276 |

| Sequence | binding signal [E-score] |
| --- | --- |
| TGGGTAAA | -0.0968 |
| AGCCAGAT | -0.178 |
| GCTTACCA | -0.112 |
| AGAGCAAC | -0.127 |
| GTGAACGA | -0.127 |
| ACATACTC | 0.0372 |
| AGGCCGTC | -0.169 |
| AGGACACA | 0.224 |
| AACTCGCG | 0.0375 |
| GCTATGAC | -0.2 |
| CAATCACA | -0.0521 |
| AATGGGCT | -0.0422 |
| ATTCGGCC | 0.0525 |
| CCGCTCGA | -0.087 |
| ACCATGGG | 0.162 |
| GACACAGA | 0.118 |
| ACCCTGGC | 0.0832 |
| TGTGGCAA | -0.00668 |
| CCTAGGGA | 0.0728 |
| AGAGCAAG | -0.0458 |
| CACTGGCG | 0.268 |
| CCCCTGAC | 0.271 |
| GAGAGTCC | -0.187 |
| AAGCGGAA | -0.115 |
| CCCGTAAG | 0.119 |

| Sequence | binding signal [E-score] |
| --- | --- |
| ACCCTAAA | 0.11 |
| CTCCTCCA | 0.103 |
| GGTGAGAA | -0.00273 |
| ATAATTTG | -0.136 |
| CTCTGGGC | -0.101 |
| CACCCTGA | 0.339 |
| ACTGTGTC | 0.155 |
| TACTAATA | -0.138 |
| GTTATCGA | -0.0482 |
| AGATAGAC | 0.154 |
| ACGCGCGC | 0.052 |
| CATTATGG | 0.00229 |
| ACCCATGA | 0.108 |
| AATAGGGA | 0.158 |
| AGACGTCG | -0.164 |
| ATATCCTA | -0.0312 |
| AGCTCAGG | -0.118 |
| ATGCAGGG | -0.00814 |
| ACCTTTCA | -0.0295 |
| AATCATCT | -0.028 |
| CTCTACAA | -0.13 |
| CTGTTGAA | -0.118 |
| ACGAGACC | 0.12 |
| AGGTGACT | 0.165 |
| GCCGTTCC | 0.0211 |

| Sequence | binding signal [E-score] |
| --- | --- |
| ATTGCCCC | -0.142 |
| CAGTTGTC | -0.124 |
| CACAGGGG | 0.141 |
| ATTGACGC | 0.0242 |
| CTAGGTGA | -0.0468 |
| AATGGACG | -0.154 |
| GGATCGCC | 0.102 |
| AGAGAGTG | 0.0559 |
| CCCAACTA | 0.0269 |
| ATTCTCCG | -0.0859 |
| CCGTTTGC | -0.225 |
| ATCGACAT | -0.123 |
| CTCTGGCA | -0.0398 |
| GTGATGCA | -0.224 |
| TATTTCAA | -0.188 |
| CGAGCGAA | -0.168 |
| AAGCACGT | 0.1 |
| ATTAGCTA | -0.0207 |
| ACTTATAA | 0.00439 |
| CAGCGCTA | -0.201 |
| CATCTAGA | -0.138 |
| CCAGCCAC | 0.104 |
| GACACACA | 0.334 |
| CAATCGAC | -0.0797 |
| CTCCTTGC | -0.129 |

| Sequence | binding signal [E-score] |
| --- | --- |
| ATGGCACA | 0.018 |
| AGTCGTAG | -0.0895 |
| CGCATCCC | -0.0467 |
| ACCATTTG | 0.0664 |
| ATGCTCAG | -0.192 |
| CTTCTAAC | -0.0205 |
| ATAACCTC | -0.0498 |
| GTCCCGAC | 0.0284 |
| CATCCACG | -0.0627 |
| CCCGGTTA | 0.0483 |
| AGGTATGC | -0.0237 |
| GTTTTAAA | -0.0963 |
| GTACATCA | 0.0697 |
| AGATAGTG | 0.0652 |
| ATATGTAA | -0.227 |
| TCACCGCA | -0.0456 |
| ATAGCTGG | -0.108 |
| GCAGATTA | -0.128 |
| ATAATGTC | 0.00056 |
